We go through six compounds from patent US4952607A, “Copper complex for treating cancer” (priority 1986, dated 1990).

Read-outs that look alike come from different tables or passages of the source.

Assay [1] relates to Ehrlich carcinoma cells. The following applies: for effective dose: intramuscular; for mice surviving beyond the time at which all control mice died: 58th day after implantation; for Mean Survival Time: ± standard error, p less than 0.0001.
Assay [2] concerns Ehrlich carcinoma cells. The following applies: cited from earlier work.
Assay [3] concerns Ehrlich carcinoma cells. The assay is described as follows: Preliminary experiments in Swiss mice implanted with Ehrlich carcinoma cells. It is filed as in vivo.
[4] abbreviates: CuDIPS × 10 (Daily, days 0-4 and 35-39).

Regarding `O=C(O)c1ccccc1[O-].O=C(O)c1ccccc1[O-].[Cu+2]` [CuS, Cu(II)(salicylate)2], the tumor growth entry in the assay with Ehrlich carcinoma cells [1] (Charts V and VI) was “dramatically reduced tumor growth”. The compound also displayed an effective dose in the assay with Ehrlich carcinoma cells [1] of 25 mg/kg.

Regarding `CC(C)c1cc(C(=O)[O-])c(O)c(C(C)C)c1.CC(C)c1cc(C(=O)[O-])c(O)c(C(C)C)c1.[Cu+2]` [CuDIPS, Cu(II) (3,5-diisopropylsalicylate)2], the “animals surviving for over 98 days” value in the assay with Ehrlich carcinoma cells [2] (CuDIPS every day for 10 days, over 98 days) is listed as 10%. Besides, the “mean survival vs other CuDIPS groups” value in the assay with Ehrlich carcinoma cells [1] (0.5 mg MWF, 10 doses) is “showed a greater increase in mean survival”. The “mice with regressed tumors” value with Ehrlich carcinoma cells [1] (0.5 mg MWF, 10 doses, out of 24 mice, tumors recurred by 90 days) is “two of them had regressed tumors”. The “lung nodules on 45th day” value in the assay with Ehrlich carcinoma cells [1] (5 daily doses of CuDIPS, killed on 45th day after transplantation) is “only microscopic nodules were observed in the lungs”. The “mice surviving beyond the time at which all control mice died” value in the assay with Ehrlich carcinoma cells [1] worked out at 45%. In addition, the tumor growth entry in the assay with Ehrlich carcinoma cells [1] (5 days, p less than 0.001) was “difference in tumor growth”; in the assay with Ehrlich carcinoma cells [1] (Charts V and VI), “dramatically reduced tumor growth”. Besides, the “animals surviving for 48 days” value with Ehrlich carcinoma cells [1] (48 days) is recorded as “More than 90%”. In addition, the “efficacy in reducing tumor growth among complexes of Chart IX” value with Ehrlich carcinoma cells [1] (Chart IX) is reported as “most effective in reducing tumor growth”. For the same compound, the “survival of the host organisms” value in the assay on Ehrlich carcinoma cells [1] (Charts V and VI) is on record as “prolonged survival of the host organisms”. The “time until microscopic lung metastasis observed” value in the assay with Ehrlich carcinoma cells [1] (CuDIPS treated mice, control as early as 10 days) is reported as at least 45 days. Moreover, the “Maximum Survival Time” value with Ehrlich carcinoma cells [1] (CuDIPS × 5 (Daily)) is 68 days; in the assay on Ehrlich carcinoma cells [1] (CuDIPS × 10 (Daily)), 87 days; in the assay with Ehrlich carcinoma cells [1] (setting [4]), above 124 days; in the assay with Ehrlich carcinoma cells [1] (CuDIPS × 10 (MWF)), 124 days; in the assay with Ehrlich carcinoma cells [1] (CuDIPS × 18 (MWF × 6)) it was 79 days. Also, the “Median Survival Time” value in the assay on Ehrlich carcinoma cells [1] (CuDIPS × 5 (Daily)) was determined as 52 days; in the assay on Ehrlich carcinoma cells [1] (CuDIPS × 10 (Daily)), 55 days; with Ehrlich carcinoma cells [1] (setting [4]) it was 59 days; in the assay on Ehrlich carcinoma cells [1] (CuDIPS × 10 (MWF)), 62 days; in the assay with Ehrlich carcinoma cells [1] (CuDIPS × 18 (MWF × 6)), 49 days. Moreover, the “Mean Survival Time” value in the assay with Ehrlich carcinoma cells [1] (CuDIPS × 5 (Daily)) was 54 ± 3 days; with Ehrlich carcinoma cells [1] (CuDIPS × 10 (Daily)), 58 ± 5 days; with Ehrlich carcinoma cells [1] (setting [4]), 58 ± 4 days; with Ehrlich carcinoma cells [1] (CuDIPS × 10 (MWF)) it was 61 ± 6 days; with Ehrlich carcinoma cells [1] (CuDIPS × 18 (MWF × 6)), 50 ± 4 days. Also, the effect on metastasis entry in the assay with Ehrlich carcinoma cells [1] (CuDIPS, 5 daily doses) is listed as “delayed the process of metastasis”. Also, the effective dose in the assay on Ehrlich carcinoma cells [1] was 25 mg/kg.

As for `O=S(=O)([O-])[O-].[Cu+2]` [CuSO4, copper sulfate, reference compound], the antitumor effect entry with Ehrlich carcinoma cells [2] (Ehrlich tumor model) was “no antitumor effect”. Further, in the assay on Ehrlich carcinoma cells [1] (CuSO4 0.5 mg, 5 days), the cause of death result is given as “death is caused by massive lung metastasis”. In addition, in the assay with Ehrlich carcinoma cells [1] (CuSO4 or DIPS alone), the antitumor activity result is listed as “no antitumor activity”.

Turning to `CC(=O)Oc1ccccc1C(=O)[O-].CC(=O)Oc1ccccc1C(=O)[O-].CC(=O)Oc1ccccc1C(=O)[O-].CC(=O)Oc1ccccc1C(=O)[O-].[Cu+2].[Cu+2]` [Cu(II)2 (aspirinate)4], the tumor growth result with Ehrlich carcinoma cells [1] (Charts VII and VIII) is recorded as “reduces tumor growth”. The compound further displayed an effective dose with Ehrlich carcinoma cells [1] of 50 mg/kg. In addition, the “activity compared with SOD” value in the assay with Ehrlich carcinoma cells [1] (solid Ehrlich tumor) is reported as “more active than SOD”.

Take “Orgotein: generic name for CuZnSOD derived from bovine liver”: the “response of Ehrlich carcinoma to treatment” value with Ehrlich carcinoma cells [1] (CBA mice, day of implantation or 5 or 10 consecutive days, listed as SOD) was “no effect against this solid Ehrlich tumor”. For the same compound, the “effect on growth of tumor cells” value with Ehrlich carcinoma cells [1] (any of the models studied) was “does not have a large effect on the growth of tumor cells”. In the assay on Ehrlich carcinoma cells [3], the “reduction in tumor size” value was “a reduction in tumor size occurs”.

Turning to `CC(C)(C)c1cc(C(=O)[O-])c(O)c(C(C)(C)C)c1.CC(C)(C)c1cc(C(=O)[O-])c(O)c(C(C)(C)C)c1.[Cu+2]` [CuDTBS, Cu(II)(3,5-ditertiarybutylsalicylate)2], the “mice surviving beyond the time at which all control mice died” value with Ehrlich carcinoma cells [1] amounted to 25%. Besides, in the assay on Ehrlich carcinoma cells [1] (Charts V and VI), the “survival of the host organisms” value is recorded as “prolonged survival of the host organisms” and the tumor growth entry is listed as “dramatically reduced tumor growth”. Moreover, in the assay with Ehrlich carcinoma cells [1] (CuDTBS-treated group), the “period for 100% survival” value was determined as 44 days and the “period for 100% survival vs controls” value was “ten times longer”.
